From the supplement of paper PMC3334620
Whole data set: some 33,000 sequences, median “E-score (-0.5 to 0.5)” near -0.056, cut for the highest 2% near 0.38. This is one part of the list.

target: Stb4 (UniProt P50104); test: PBM E-score (8-mer binding enrichment) (E-score (-0.5 to 0.5)); higher = stronger / more preferred TF binding; most listed sequences are background and not binding sites; details: protein concentration: 200 nM; construct: GST-DNA-binding domain
Procedure: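 Universal 'all 10-mer' protein binding microarrays (Agilent AMADID 015681) probed with GST-tagged S. cerevisiae TFs (full-length or DBD) made by in vitro transcription/translation (PURExpress), about 100-200 nM. Bound TF was detected with fluorescent anti-GST. Each ungapped 8-mer (which stands for itself and its reverse complement) is scored by the PBM enrichment score (E-score), a modified Wilcoxon-Mann-Whitney statistic from -0.5 to +0.5, computed with the Universal PBM Analysis Suite. Scale: above 0.35 generally sequence-specific binding.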

Row | Sequence | PBM E-score
1 | AAGTTTGG | -0.0494
2 | ATCTTACG | 0.0618
3 | CCGCCGAG | 0.394
4 | AACTGCGG | 0.178
5 | CGACAACG | -0.0324
6 | ATTAACGA | 0.0839
7 | CCGGGAAG | 0.309
8 | AAGATCGC | -0.194
9 | CGATACAG | 0.0396
10 | CCAATTTC | 0.18
11 | AGAGTATG | -0.0541
12 | AAATCGCT | -0.16
13 | CAGTAGCC | -0.0125
14 | GAACGAAA | -0.145
15 | CATTGACG | -0.157
16 | CCGTAGCA | -0.107
17 | AGGTTAAC | -0.0629
18 | GGTACTTA | 0.163
19 | ACCTTTGC | -0.107
20 | ATAGAGTC | -0.016
21 | CCAGTGGG | -0.119
22 | CCGTCCGA | 0.317
23 | ACACGTCC | -0.0618
24 | AAAGAGCC | -0.0224
25 | ATGGCCTG | -0.159

Row | Sequence | PBM E-score
26 | CTTTGCTC | -0.0428
27 | AGCTTAAG | -0.244
28 | TAGCTGAA | -0.242
29 | GTCTGCAC | -0.122
30 | CCCCGCTC | -0.0289
31 | ACGGTCCA | -0.0376
32 | GCTATATA | -0.0174
33 | CGATCAAC | -0.128
34 | ACATCACG | -0.0148
35 | ACCGCCCC | 0.241
36 | TACACTAA | -0.231
37 | ATGAGATG | -0.124
38 | CATCAGAA | -0.295
39 | AGGGCTGC | -0.134
40 | GAAACCCC | 0.177
41 | GGGTTTGA | -0.086
42 | ATTTCGGA | 0.454
43 | GTGTGTCA | -0.0816
44 | GGACACGA | -0.0328
45 | AGTTCCCG | 0.396
46 | AGCAAGAA | -0.0526
47 | AACTAGGC | -0.163
48 | CGCTTCCG | 0.402
49 | CAGTCCTA | -0.258
50 | ACCGGACT | 0.252

Row | Sequence | PBM E-score
51 | CAGCGATG | -0.0906
52 | GAGTTGAC | 0.081
53 | GAGCCAAC | -0.29
54 | CGGATAAC | 0.452
55 | GAACCGAC | 0.286
56 | CAGTATCC | 0.146
57 | CTCCCTAC | -0.175
58 | GGGCGCAC | -0.0798
59 | ATAAAATG | -0.11
60 | AATATTAC | 0.0217
61 | ACTCTGGC | -0.0577
62 | CGTGGTCA | -0.146
63 | AGCGGGAT | 0.0765
64 | AAGGACCA | -0.16
65 | ATATCGCA | -0.132
66 | ATAACAAT | -0.105
67 | TAAGGGGA | -0.059
68 | ACCCCCAC | -0.165
69 | ATCATCGG | 0.337
70 | AGAGTCAT | -0.335
71 | GCGCGTTA | 0.0702
72 | AGCGTCAA | -0.232
73 | ACTTCGAA | -0.167
74 | ATTGACGC | -0.226
75 | ACAGATGG | -0.256

Row | Sequence | PBM E-score
76 | ACACGTGT | -0.0193
77 | AGGATGAC | -0.297
78 | ATGGTCGA | -0.177
79 | GAACGTCA | -0.175
80 | GGAAGAGA | 0.182
81 | CCGCCAGC | 0.133
82 | CGGTATTA | 0.319
83 | GATATGGC | -0.0731
84 | ATTTCATG | -0.23
85 | ATTGAGTA | -0.123
86 | CGAAATGA | 0.193
87 | CAGAAGGC | -0.129
88 | CCGGGAGG | 0.27
89 | AGACAGAA | -0.159
90 | CTGTTGGA | -0.191
91 | GGAGACTA | -0.0362
92 | GCAACTCA | -0.215
93 | ACAATAAC | 0.0256
94 | CCGGCGAC | 0.186
95 | AGGGTTCC | 0.137
96 | CTGAAGCA | -0.165
97 | ACAAAAGG | -0.00204
98 | CCGCATCC | 0.233
99 | TAGCCTGA | -0.264
100 | CTACCCAG | -0.135

Row | Sequence | PBM E-score
101 | CACTTAGG | -0.152
102 | ATTATAGA | -0.124
103 | CTCTTCGC | -0.203
104 | CAGGGGAG | -0.089
105 | CGGTTACG | 0.291
106 | GGCCCTTA | -0.0882
107 | ACGTAATA | -0.125
108 | ATTTATTC | 0.114
109 | GATCGATA | -0.064
110 | GGTACATA | 0.203
111 | GAAAACGC | -0.0799
112 | CCACAGAA | -0.0915
113 | AACACGAT | 0.0151
114 | AATCGCAC | -0.281
115 | ATTGGGTA | -0.22
116 | CTCATAGC | -0.26
117 | ACTTGCCA | -0.149
118 | ATGTGAGG | -0.0328
119 | GAATTTTA | -0.0123
120 | AGGGGGAT | -0.135
121 | ACTAGAAC | 0.0472
122 | GGAATGCA | 0.168
123 | AGTTAGAT | -0.321
124 | AGAGACTG | -0.186
125 | ACCGAGCA | 0.374

Row | Sequence | PBM E-score
126 | ACTCGCCA | -0.214
127 | ATCACCGC | -0.0862
128 | GTTTATCA | 0.042
129 | ACGAGTTG | 0.0016
130 | ACGCGTTA | -0.0856
131 | ATTCTGCC | 0.198
132 | TAGCAGGA | -0.134
133 | AAGTTCTG | -0.053
134 | CAGAGACC | -0.132
135 | AATAGAAG | -0.138
136 | GGGCGAAA | -0.102
137 | AACCTCGG | 0.452
138 | GGTTAGAC | -0.00117
139 | CTTAGAAA | -0.0847
140 | CGCGCGGA | 0.227
141 | CTCGCCTC | -0.208
142 | CTGCTCGC | -0.0171
143 | CTGGATAC | -0.0349
144 | ACATCACT | -0.183
145 | CATCAACG | 0.00326
146 | GATAGGAC | -0.0721
147 | GGGTTAGA | -0.0491
148 | CAGCAATC | -0.0443
149 | TGGTACCA | 0.0458
150 | ACGACATG | -0.26

Row | Sequence | PBM E-score
151 | AAAACCCG | 0.351
152 | CTATTCAC | 0.0895
153 | CAAGAAGA | -0.0306
154 | AAGAGTGT | -0.0765
155 | AACATGAT | 0.0111
156 | CACGAACC | -0.198
157 | AAACACAC | 0.0639
158 | AAGCGATC | 0.0964
159 | TAATCCTA | -0.00858
160 | ACCTACAT | 8e-05
161 | CGCAAGAG | -0.0844
162 | ACGGTACT | 0.0575
163 | GGATAGAC | 0.0611
164 | GGGGCTAC | 0.0291
165 | CCAAAGTC | -0.224
166 | CGTTTTGC | -0.0381
167 | ATGTGTCC | -0.0365
168 | GGCTGGAA | -0.094
169 | AACTAAGT | -0.0531
170 | GGCCAAGA | -0.145
171 | CGTGAGAG | -0.188
172 | CCCTGCAG | -0.0791
